The target of assay [1] is T1, rVIII-SingleChain (recombinant B-domain-deleted single chain Factor VIII) (Homo sapiens (Human), UniProt P00451 20-2351).
T1 construct: also called rFVIII-SingleChain; FVIII
T1 sequence: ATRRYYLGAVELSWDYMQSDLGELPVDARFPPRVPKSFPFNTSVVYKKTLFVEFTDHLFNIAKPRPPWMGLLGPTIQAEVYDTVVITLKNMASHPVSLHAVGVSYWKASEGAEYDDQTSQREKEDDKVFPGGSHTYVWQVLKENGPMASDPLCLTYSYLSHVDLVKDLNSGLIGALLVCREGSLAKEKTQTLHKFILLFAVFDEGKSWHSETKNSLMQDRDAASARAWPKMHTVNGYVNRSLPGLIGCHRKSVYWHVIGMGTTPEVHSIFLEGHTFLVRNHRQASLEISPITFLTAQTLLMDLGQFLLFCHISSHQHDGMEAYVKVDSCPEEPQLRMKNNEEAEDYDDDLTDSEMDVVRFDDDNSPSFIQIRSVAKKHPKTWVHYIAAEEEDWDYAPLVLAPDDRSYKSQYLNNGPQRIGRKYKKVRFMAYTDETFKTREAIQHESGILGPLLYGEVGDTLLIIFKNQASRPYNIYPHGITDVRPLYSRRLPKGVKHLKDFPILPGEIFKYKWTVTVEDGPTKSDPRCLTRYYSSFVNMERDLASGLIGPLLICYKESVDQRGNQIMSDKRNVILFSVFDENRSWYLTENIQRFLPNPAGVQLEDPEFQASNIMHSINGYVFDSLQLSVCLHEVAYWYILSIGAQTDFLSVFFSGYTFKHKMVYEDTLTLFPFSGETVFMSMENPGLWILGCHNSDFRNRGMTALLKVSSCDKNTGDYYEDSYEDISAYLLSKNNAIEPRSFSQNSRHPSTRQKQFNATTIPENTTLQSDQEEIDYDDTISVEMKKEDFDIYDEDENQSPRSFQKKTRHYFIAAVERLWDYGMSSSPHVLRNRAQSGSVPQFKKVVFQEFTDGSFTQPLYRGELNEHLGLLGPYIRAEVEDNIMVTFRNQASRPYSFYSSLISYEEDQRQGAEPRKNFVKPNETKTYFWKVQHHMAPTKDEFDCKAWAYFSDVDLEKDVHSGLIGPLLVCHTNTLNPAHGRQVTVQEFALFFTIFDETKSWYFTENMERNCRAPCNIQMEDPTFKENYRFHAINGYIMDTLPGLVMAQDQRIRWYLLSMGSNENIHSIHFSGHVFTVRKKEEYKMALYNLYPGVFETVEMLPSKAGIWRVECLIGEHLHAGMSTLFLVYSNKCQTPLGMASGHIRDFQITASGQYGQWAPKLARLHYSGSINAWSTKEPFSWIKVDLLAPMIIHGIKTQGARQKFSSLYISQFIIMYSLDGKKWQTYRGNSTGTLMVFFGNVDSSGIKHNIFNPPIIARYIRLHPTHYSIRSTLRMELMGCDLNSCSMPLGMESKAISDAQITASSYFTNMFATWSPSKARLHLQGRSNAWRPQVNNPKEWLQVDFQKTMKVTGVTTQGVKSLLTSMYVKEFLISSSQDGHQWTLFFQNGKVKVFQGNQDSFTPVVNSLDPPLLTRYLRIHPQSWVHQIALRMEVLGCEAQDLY
The assay is described as follows: SPR (Biacore T200), D′D3-FP captured via anti-albumin antibody, rVIII-SingleChain as analyte, single cycle kinetics, 25 °C; D′D3-FP dimer preparation. As to the method:
(§1) A VWF fragment (1-1242) albumin fusion (D′D3-FP) was expressed in a bioreactor; after purification as described above and isolation of monomer and dimer, the affinity of FVIII to these preparations was assessed through surface plasmon resonance via a Biacore instrument (T200, GE Healthcare).
(§2) An anti-albumin antibody (MA1-20124, Thermo Scientific) was covalently coupled via its N-terminus to an activated CM 3 chip by NHS (N-Hydroxysuccinimide) and EDC (Ethanolamine hydrochloride), both contained in the amine coupling kit (BR1000-50) from GE Healthcare. For immobilization 3 μg/mL of the antibody were diluted in sodium acetate buffer (10 mM, pH 5.0) and the antibody solution was flown over the chip for 7 min. at a flow rate of 10 μL/min. After the immobilization procedure non-coupled dextran filaments were saturated by flowing ethanolamine solution (1 M, pH 8.3) over the chip for 5 min (at a flow rate of 10 μL/min). The aim of saturating the flow cell was to minimize unspecific binding of the analytes to the chip. A reference flow cell was set up by saturating an empty flow cell with ethanolamine by using the same procedure as above.
(§3) Dimeric and monomeric D′D3-FP proteins, respectively, were immobilized to the covalently coupled anti-albumin antibody by a flow of the D′D3-FP proteins (5 μg/mL) over the chip for 3 min (flow rate of 10 μL/min).
Background: In SPR one partner is held on a chip, and binding of the other changes the refractive index at the surface.

Assay [2] deals with T1, rVIII-SingleChain (recombinant …). The assay is described as follows: SPR (Biacore T200), D′D3-FP captured via anti-albumin antibody, rVIII-SingleChain as analyte, single cycle kinetics, 25 °C; D′D3-FP monomer preparation. As to the method:
as §1, §2, §3

For two molecules, Kd results are on record in US20210268071A1 (CSL BEHRING LENGNAU, published 2021).

B1: D′D3-FP dimer (VWF D′D3 albumin fusion protein, dimeric preparation) (other)
chain: SLSCRPPMVKLVCPADNLRAEGLECTKTCQNYDLECMSMGCVSGCLCPPGMVRHENRCVALERCPCFHQGKEYAPGETVKIGCNTCVCRDRKWNCTDHVCDATCSTIGMAHYLTFDGLKYLFPGECQYVLVQDYCGSNPGTFRILVGNKGCSHPSVKCKKRVTILVEGGEIELFDGEVNVKRPMKDETHFEVVESGRYIILLLGKALSVVWDRHLSISVVLKQTYQEKVCGLCGNFDGIQNNDLTSSNLQVEEDPVDFGNSWKVSSQCADTRKVPLDSSPATCHNNIMKQTMVDSSCRILTSDVFQDCNKLVDPEPYLDVCIYDTCSCESIGDCACFCDTIAAYAHVCAQHGKVVTWRTATLCPQSCEERNLRENGYECEWRYNSCAPACQVTCQHPEPLACPVQCVEGCHAHCPPGKILDELLQTCVDPEDCPVCEVAGRRFASGKKVTLNPSDPEHCQICHCDVVNLTCEACQEPGGSSGGSGGSGGSGGSGGSGGSGGSGGSGGSGS[gap - about 600 residues]
notes: It was expressed from VWF amino acids 1-1242 with the propeptide cleaved; In the SPR assay it was captured on an immobilised anti-albumin antibody; also called dimeric D′D3-FP; rD′D3-FP
A word on the Kd: it is the equilibrium constant for the complex coming apart. Regarding B1, in assay [1], the dissociation constant (Kd) turned out to be 0.034 nM.

B2: D′D3-FP monomer (VWF D′D3 albumin fusion protein, monomeric preparation) (other)
chain: SLSCRPPMVKLVCPADNLRAEGLECTKTCQNYDLECMSMGCVSGCLCPPGMVRHENRCVALERCPCFHQGKEYAPGETVKIGCNTCVCRDRKWNCTDHVCDATCSTIGMAHYLTFDGLKYLFPGECQYVLVQDYCGSNPGTFRILVGNKGCSHPSVKCKKRVTILVEGGEIELFDGEVNVKRPMKDETHFEVVESGRYIILLLGKALSVVWDRHLSISVVLKQTYQEKVCGLCGNFDGIQNNDLTSSNLQVEEDPVDFGNSWKVSSQCADTRKVPLDSSPATCHNNIMKQTMVDSSCRILTSDVFQDCNKLVDPEPYLDVCIYDTCSCESIGDCACFCDTIAAYAHVCAQHGKVVTWRTATLCPQSCEERNLRENGYECEWRYNSCAPACQVTCQHPEPLACPVQCVEGCHAHCPPGKILDELLQTCVDPEDCPVCEVAGRRFASGKKVTLNPSDPEHCQICHCDVVNLTCEACQEPGGSSGGSGGSGGSGGSGGSGGSGGSGGSGGSGS[gap - about 600 residues]
notes: In the SPR assay it was captured on an immobilised anti-albumin antibody; also called monomeric D′D3-FP
With B2, the Kd in assay [2] came out at 30 nM.
